According to PubChem BioAssay AID1030 (National Center for Advancing Translational Sciences (NCATS), 2008):
Hit rate of the full screen: of about 220,000 compounds, about 16,000 (7.3%) were called active. This list was built around the results that the source calls inconclusive (neither active nor inactive); the mix of calls is not that of the screen. The call rests on the fitted dose curve; in most records, active means well fitted inhibition curve with a large enough effect (not every such curve was filed as active); inconclusive means small, poorly fitted or top-dose-only effect, or another doubt; inactive means no such curve, though single readings can be large or run the other way. A potency beside an inconclusive call is a rough fit, not a confirmed value.

Target: Aldehyde dehydrogenase 1A1 (Homo sapiens) (UniProt P00352)
Assay: qHTS Assay for Inhibitors of Aldehyde Dehydrogenase 1 (ALDH1A1);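 on activity, negative = inhibition: plate controls were no enzyme wells and a reference inhibitor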
Settings: Purified ALDH1A1, NADH fluorescence, propionaldehyde substrate; series mostly up to 75.3 µM; activity, negative = inhibition: at the top concentration
Potency means the concentration at half of the fitted maximal effect; tags describe the fitted curve by direction and shape.

UniProt P00352, sequence (P00352 whole entry, looked up): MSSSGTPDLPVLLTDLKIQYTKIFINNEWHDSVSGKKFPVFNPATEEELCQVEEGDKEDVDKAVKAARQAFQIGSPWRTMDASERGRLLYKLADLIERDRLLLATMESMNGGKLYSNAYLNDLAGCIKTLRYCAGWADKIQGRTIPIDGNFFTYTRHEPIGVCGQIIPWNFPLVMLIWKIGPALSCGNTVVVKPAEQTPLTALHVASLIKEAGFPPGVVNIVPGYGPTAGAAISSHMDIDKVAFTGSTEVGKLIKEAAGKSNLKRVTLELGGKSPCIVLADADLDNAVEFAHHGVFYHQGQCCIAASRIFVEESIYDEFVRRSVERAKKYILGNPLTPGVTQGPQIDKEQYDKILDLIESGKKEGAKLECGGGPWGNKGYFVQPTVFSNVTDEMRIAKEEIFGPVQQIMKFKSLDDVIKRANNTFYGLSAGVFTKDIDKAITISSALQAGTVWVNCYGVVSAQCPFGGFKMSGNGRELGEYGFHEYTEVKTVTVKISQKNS

Potency, inconclusive:
O=C(Nc1ccccc1C(=O)N/N=C/c1ccc(F)cc1)c1ccccc1Br 35.5 µM [inhibitor, partial curve], COCCN1CCn2c(nc3cc(NC(=O)c4ccc(OC)cc4)ccc32)C1 25.1 µM [inhibitor, partial curve], O=C(CSc1cccc[n+]1[O-])c1cc2ccccc2o1 39.8 µM [inhibitor, single point], CC(C)Cc1nc2oc3c(NCCCN4CCOCC4)ncnc3c2c2c1CCC2 39.8 µM [inhibitor, single point], O=c1oc(Nc2ccccc2Cl)nc2ccccc12 35.5 µM [inhibitor, single point], O=C(COC(=O)c1ccccc1C(=O)c1ccccc1)c1ccco1 28.2 µM [inhibitor, single point], O=C(CC(Nc1ccc(F)cc1)C(=O)O)c1ccccc1 (configuration not stated) 35.5 µM [inhibitor, single point], CCOc1ccc(-n2c(C)cc(/C=N/NC(=O)C(N)=O)c2C)cc1 35.5 µM [inhibitor, single point], O=C(Nc1nccs1)c1ccc(COc2ccccc2Cl)o1 39.8 µM [inhibitor, single point], COc1cccc(-c2nnc(-c3ccccc3NC(=O)c3ccc(C(C)(C)C)cc3)o2)c1 35.5 µM [inhibitor, single point], CCC(C)c1ccc2oc(-c3ccc(NC(=O)Cn4cnc5c(=O)n(C)c(=O)n(C)c54)cc3)nc2c1 (configuration not stated) 14.1 µM [inhibitor, partial curve], O=C(NC1CC1)c1ccc2c(c1)ncn2C1CCCC1 44.7 µM [inhibitor, single point], O=C(Cl)c1c(Cl)cccc1Cl 39.8 µM [inhibitor, single point], O=C(c1cc2c(s1)-c1ccccc1OC2)N1CCc2ccccc2C1 35.5 µM [inhibitor, partial curve], OCCNc1ncnc2c1c(-c1ccccc1)c(-c1ccccc1)n2Cc1ccco1 39.8 µM [inhibitor, single point], O=C(Oc1ccc2ccc(=O)oc2c1)N1CCOCC1 35.5 µM [inhibitor, single point], N#Cc1sc2nc(C3CC3)cc(-c3ccccc3)c2c1N 35.5 µM [inhibitor, single point], O=C(N/N=C/C1=C(N2CCOCC2)C(=C\c2ccccc2)/CC1)Nc1ccccc1 11.9 µM [inhibitor, partial curve], COC1C=CC(CNC(=O)c2cc3c(=O)n4cccc(C)c4nc3n2C)(OC)O1 (configuration not stated) 12.6 µM [inhibitor, partial curve], COc1ccc(-c2[nH]n(-c3ccc([N+](=O)[O-])cc3)c(=O)c2C=NCCN2CCNCC2)cc1 39.8 µM [inhibitor, single point], COc1ccc(Cn2nnnc2C(c2cccnc2)N2CCN(c3ccc(O)cc3)CC2)cc1 (configuration not stated) 39.8 µM [inhibitor, single point], CCN(CC)CCN1CCn2c3c(c4cc(C)ccc42)CCCC31 (configuration not stated) 35.5 µM [inhibitor, single point], CCOC(=O)/C(C#N)=C1/C=CN(c2ccc(C)cc2)C=N1 14.1 µM [inhibitor, partial curve], O=C(CSc1nnc(-c2cccnc2)n1Cc1ccco1)c1ccc(Cl)c(Cl)c1 31.6 µM [inhibitor, single point], CCN(CC)S(=O)(=O)c1ccc(NC(=O)COC(=O)c2ccc(NC(=O)CC#N)cc2)cc1 5.62 µM [inhibitor, partial curve], CCCCn1c(=O)nc2n(-c3ccccc3)c3ccccc3cc-2c1=O 25.1 µM [inhibitor, partial curve], O=C(Cn1cccc1)N1CCN(C(c2ccccc2)c2ccccc2)CC1 39.8 µM [inhibitor, single point]

Potency, active:
Cn1c(C(=O)N2CCCC(C(=O)NCCCSC3CCCCC3)C2)cc2sccc21 (configuration not stated) 1.26 µM, CCOC(=O)C1C(=O)C=C(c2ccc(Br)cc2)CC1c1ccco1 (configuration not stated) 15.8 µM, CC(C)(C)NS(=O)(=O)c1cnc(Cl)c(Cl)c1 31.6 µM, Cc1cc2n(n1)SC(Nc1cc(Cl)ccc1Cl)N2 (configuration not stated) 3.55 µM, O=C(CCCC(=O)N1CCN(c2ccc([N+](=O)[O-])cc2)CC1)c1ccccc1 28.2 µM, C/C(N)=C(/C#N)C(=O)CSc1nc(C2CCCCC2)n(-c2ccccc2)n1 31.6 µM

activity, negative = inhibition, inactive:
CCO[C@H]1OC(C(=O)N2CCOCC2)=C[C@@H](c2coc3ccccc3c2=O)[C@@H]1CCCO 2.92%, COc1ccc(C2C(C(=O)Nc3ccccc3OC)=C(C)Nc3nnnn32)c(OC)c1 (configuration not stated) -14.3%, CCCCNC(=O)CNC(=S)N(Cc1cc(OC)c(OC)c(OC)c1)C1CCCC1 -0.714%, CCOC(=O)c1ccc2nc(NC(C)=O)sc2c1 -13.3%, O=C(Nc1ccccc1)c1cn2ccccc2n1 -2.14%, COc1ccccc1CNCC(=O)N1CC(=O)Nc2ccccc21 -12.1%, C=CCOC(=O)NC(c1ccc(F)c(F)c1)C(C(C)=O)C(=O)OC (configuration not stated) 2.74%, COc1ccccc1Oc1ccc(N/C=C/C(=O)C(C)(C)C)cc1 -14.8%, CNc1nc(-c2ccccn2)nnc1-c1ccccc1 -2.37%, Cc1ccnc2nc(C(=O)OCC(=O)NC(=O)NCc3ccco3)nn12 5.7%, CCOC(=O)CCCNC(=O)N1CCc2nc(-c3ccccc3)c3c(c2C1)CO[C@@H](C)C3 3.67% [at 13.5 µM], Cc1nn(C)c(C)c1N1C(=O)c2cccc3c(N)ccc(c23)C1=O 5.65%, C=CCOc1ccc(/C=N/NC(=O)C(C)Sc2ccccn2)cc1OC (configuration not stated) 1.95%, Cc1cc(=O)[nH]c(SCc2nc3ccccc3n2Cc2ccccc2)n1 0.755%
